Out of some 150,000 compounds screened, about 540 (0.36%) showed an effect of 50% or more. The list shows a part of the results.

For the test, the system named is Plasmodium falciparum. The experiment in a line: Primary screen in NF54 nanoGlo assay, in single point, at 2uM, 72h; a lower Z score goes with more inhibition. Type of test: functional, Erythrocyte. The conditions noted are these: timepoint 72 hour.
Turning to `CC(C)(C#N)C(=O)NCCNc1ccccc1`, the % Inhibition – broadly, the relative decrease from the control value, in per cent – is on record as -9% and the Z score was 1.17.

With `CCN(CC)c1ccc(NC(=O)N2CC[S+]([O-])CC2)cn1`, the “% Inhibition” value is listed as 1% and the Z score was -0.14.

Regarding `C[C@H](O)CN(CC(F)F)C(=O)c1cc(O)ncc1Br`, the “% Inhibition” value is -10% and the Z score worked out at 1.02.

As for `CN(C[C@H]1CCc2ccccc21)C(=O)C(C)(C)C(=O)O`, the “% Inhibition” value is reported as -2% and the Z score is 0.28.

`O=C(NCC1CCCO1)C1COC2(CCN(C(=O)c3ccc(F)cc3F)CC2)N1C(=O)c1ccc(F)cc1` (centres undefined): the “% Inhibition” value is -6% and the Z score is listed as 1.23.

Turning to `CCn1ncc(CNC(=O)Nc2nc(C)c(Cc3cccc(Cl)c3)s2)n1`, the “% Inhibition” value was -4% and the Z score was found to be 0.46.

As for `O=C(Nc1ccccc1)c1ccc2c(c1)C(=O)N(CCC1=CCCCC1)C2=O`, the “% Inhibition” value is on record as 31% and the Z score is -3.47.

Take `CCCN1C[C@H]2CN(C(=O)Cc3c(F)cccc3Cl)C[C@@]2(C(=O)O)C1`: the “% Inhibition” value is on record as -9% and the Z score was found to be 1.83.

In the case of `Cc1cccc(C(=O)Nc2ccc3oc(C4CC4)nc3c2)c1O`, the “% Inhibition” value came out at 29% and the Z score is on record as -3.8.

`COc1ccc(CCN[C@H]2CCC(=O)N(CC3CC3)CC2)cc1`: the “% Inhibition” value is recorded as -5% and the Z score worked out at 0.88.

For the compound `CCOC(=O)[C@@H](NC(=O)CCc1cn[nH]c1)C1CCCCCC1`, the “% Inhibition” value was -6% and the Z score is 0.77.

In the case of `O=C(N[C@@H]1CC[C@H]2CCOc3ccccc3C(=O)N3CCN(Cc4ccc(Cl)c(F)c4)C[C@H]3C(=O)NC[C@H]1O2)C1CCOCC1`, the “% Inhibition” value is given as -6% and the Z score was 0.71.

Consider `Cc1nc2c([nH]1)CN(C(=O)c1ccc(-c3nc[nH]n3)cc1)CC2`, for which the “% Inhibition” value is 1% and the Z score is reported as -0.15.

For `N#C[C@H](c1c(F)cccc1Cl)N1CC[S+]([O-])CC1`, the “% Inhibition” value is given as -1% and the Z score was 0.13.

For the compound `CC(C)(O)Cn1nc(C2CC2)nc1-c1ccc2ccccc2c1`, the “% Inhibition” value turned out to be 1% and the Z score is reported as -0.1.

Take `O=C(NCCc1cccs1)c1cccnc1`: the “% Inhibition” value came out at 9% and the Z score is reported as -1.01.

Turning to `Cc1nc(C)c(C(=O)NCCc2noc(C(C)C)n2)o1`, the “% Inhibition” value is -5% and the Z score was found to be 0.57.

Take `O=C(C1CN(C(c2ccccc2)c2ccccc2)C1)N1CCCC1`: the “% Inhibition” value was determined as 6% and the Z score was -0.81.

Turning to `CN(C(=O)Cn1ccc2ccccc2c1=O)[C@@H]1CCC[C@H]1O`, the “% Inhibition” value is -14% and the Z score is recorded as 1.14.

As for `COc1ccc2c(c1)CCC[C@@]2(O)CNC(=O)c1ccoc1`, the “% Inhibition” value is reported as -25% and the Z score turned out to be 3.2.

For the compound `Cc1nn(C)c(N)c1C(=O)N1CCC(c2nc3cccc(C)c3o2)CC1`, the “% Inhibition” value is reported as -15% and the Z score is given as 2.81.

On to `Cc1nnc2n1CCN(Cc1ccc3c(c1)CCO3)[C@H]2C(=O)N(C)C`, for which the “% Inhibition” value is reported as -4% and the Z score was found to be 0.58.

For the compound `Cc1ccc(CC(C)NC(=O)CC2CCS(=O)(=O)C2)s1` (centres undefined), the “% Inhibition” value amounted to 1% and the Z score is listed as -0.07.

As for `CCCc1nc(C)cc(N2CC[C@H](N(C)C)C2)n1`, the “% Inhibition” value was -2% and the Z score is listed as 0.3.

As to `CN(C)C(=O)CN1CN(c2ccccc2)C2(CCN(C(=O)Nc3ccc(Cl)cc3Cl)CC2)C1=O`, the “% Inhibition” value is recorded as -13% and the Z score was found to be 1.73.

As for `COc1ccc2[nH]c3c(c2c1)C[C@@H](NCc1cccnc1OC)CC3`, the “% Inhibition” value is reported as -3% and the Z score came to 0.39.

As to `N#Cc1ccc(F)cc1Cn1ncsc1=O`, the “% Inhibition” value came out at 1% and the Z score was -0.18.

For the compound `O=C(Nc1ccc(S(=O)(=O)N2CCCC2)cc1)[C@@H]1CC=CCC1`, the “% Inhibition” value is on record as -8% and the Z score came out at 1.54.

For `CC[C@H](O)Cn1nnc(-c2ccc3ncccc3c2)n1`, the “% Inhibition” value is given as -5% and the Z score is on record as 0.77.

Consider `Cn1cc(CCCN2CCC3CCC(C2)N3C(=O)OC(C)(C)C)cn1` (centres undefined), for which the “% Inhibition” value is given as 0% and the Z score is recorded as -0.02.

For `Cc1ccccc1S(=O)(=O)N1CCc2nc(-c3ccc(Cl)cc3)ncc2C1`, the “% Inhibition” value is -2% and the Z score is recorded as 0.37.

On to `COc1ccc(-c2csc(N3N=C(C)[C@H](/N=N/c4ccc(N(C)C(C)=O)cc4)C3=O)n2)cc1`, for which the “% Inhibition” value is on record as -28% and the Z score came out at 3.26.

As to `O=C(C1CCCC1)N1CCOc2ccc(N3CCOCC3)cc2C1`, the “% Inhibition” value was 7% and the Z score was -1.38.

As for `CCN(CC)C(=O)CCCNc1ncccc1Cl`, the “% Inhibition” value is -3% and the Z score was determined as 0.29.

As for `Cc1ccc(CNC(=O)CN2C(=O)CCc3cc(S(=O)(=O)N4CCCCC4)ccc32)cc1`, the “% Inhibition” value is given as -10% and the Z score is reported as 1.84.

With `Cc1ccc(-c2cc(C(N)=O)ccn2)c2ccccc12`, the “% Inhibition” value is given as -17% and the Z score is on record as 1.67.

In the case of `O=S(=O)(c1ccccc1OC(F)(F)F)N1CC(n2nccn2)C1`, the “% Inhibition” value was determined as 15% and the Z score is on record as -1.71.

In the case of `CCN(CC)C(=O)Cn1cc(C(=O)NCc2ccc(N3CCOCC3)cc2)nn1`, the “% Inhibition” value is reported as 0% and the Z score was 0.03.

Regarding `Cc1ccc(S(=O)(=O)N2CCc3cc(F)cc(C)c3C2)cn1`, the “% Inhibition” value was found to be 0% and the Z score was determined as 0.02.

For the compound `COc1ccc(C(=O)c2c(N(C)C)ccc3ccccc23)cc1`, the “% Inhibition” value was -6% and the Z score amounted to 1.19.

For the compound `CN(CCN1CCCC[C@@H]1CS(N)(=O)=O)Cc1ccccc1`, the “% Inhibition” value is on record as -5% and the Z score turned out to be 0.59.

Take `CCn1cnnc1C(C)NC(=O)CCN1C[C@@H](C)O[C@@H](C)C1` (some centres undefined): the “% Inhibition” value came to 16% and the Z score is on record as -2.08.

(Values after ChEMBL document CHEMBL4888484, “Replenishing the malaria drug discovery pipeline: Screening and hit evaluation of the MMV Hit Generation Library 1 (HGL1) against asexual blood stage Plasmodium falciparum ,using a nano luciferase reporter read-out” (2022).)
